Values marked as one replicate rest on one cluster of the flow cell; about a third of the high ones do not repeat.
These sequences were tested on ATP (assay: switch fluorescence ratio, 500 uM ATP over buffer (Cy3 cluster intensity, sum of 5 cycles each) (fold (ratio)); higher = stronger signal-on switching upon ATP binding; sequences stand for … in TCGTCGGCAGCGTCAGATGTGTATAAGAGACAGTTTTTTTTTTTTTTTTTTTTTTTTT…TC). Settings: aptamer strand: ATP DNA aptamer (quencher-CACCTGGGGGAGTATTGCGGAGGAAGG + anchor), 100 nM annealed; ATP concentration: 500 uM; one replicate.
Summary of the method: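 Clusters with intensities outside 100-1000 RFU were excluded. The remaining Cy3-labelled switching-strand clusters on a modified Illumina MiSeq flow-cell had been annealed to 100 nM quencher-labelled ATP aptamer and imaged in selection buffer, then after 15 min with 500 uM ATP at 22 °C, for five cycles separated by NaOH stripping and re-annealing. The fluorescence ratio, averaged per switch-domain sequence, is each cluster's summed target-cycle Cy3 intensity over its summed buffer-cycle Cy3 intensity.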
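Also: ATP exposure 15 min at 22 °C before imaging.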

| Sequence | switch fluorescence ratio |
| --- | --- |
| TCTGGCTACA | 1.01 |
| TCTGGGATTT | 1.27 |
| TCTGGGCCC | 0.997 |
| TCTGGGGATA | 1.03 |
| TCTGGGTTGT | 1.01 |
| TCTGGTTCCA | 1.01 |
| TCTGTAGGA | 1.02 |
| TCTGTATATC | 1.03 |
| TCTGTCCGGT | 1.03 |
| TCTGTCGCCG | 1.01 |
| TCTGTGCCGA | 0.986 |
| TCTGTTATAA | 1.08 |
| TCTGTTCGAT | 0.966 |
| TCTGTTTTCG | 1.03 |
| TCTTAAACTT | 1.14 |
| TCTTACTTTT | 1.01 |
| TCTTAGGGAA | 0.976 |
| TCTTCTACGA | 1.04 |
| TCTTCTAGTA | 1.01 |
| TCTTCTTACT | 1 |
| TCTTGATTAA | 1 |
| TCTTGGAGAT | 1.02 |
| TCTTGGGGTT | 0.961 |
| TCTTGGGTGG | 0.999 |
| TCTTGGTATT | 1.02 |
| TCTTGTACTT | 1.17 |

| Sequence | switch fluorescence ratio |
| --- | --- |
| TCTTGTTTAC | 1.56 |
| TCTTTACTTT | 1 |
| TCTTTCCATT | 0.99 |
| TCTTTCTTAG | 0.993 |
| TCTTTGCATT | 1 |
| TCTTTGGC | 1.02 |
| TCTTTTCCC | 1.04 |
| TCTTTTGCTG | 0.979 |
| TCTTTTTGCT | 1.29 |
| TGAAAACGAT | 1.02 |
| TGAAAATCAG | 0.952 |
| TGAAAGAAGA | 0.967 |
| TGAAAGGTTG | 0.995 |
| TGAAAGTGTG | 0.964 |
| TGAAAGTTCC | 1.06 |
| TGAAATCAGC | 0.998 |
| TGAAATCGG | 1.02 |
| TGAACAATTT | 1.04 |
| TGAACACGCT | 1.02 |
| TGAACCCTGG | 1.03 |
| TGAACCGTAG | 1.08 |
| TGAACGTAGA | 0.994 |
| TGAAGACAGG | 1 |
| TGAAGAGCAA | 1.76 |
| TGAAGCCAC | 1.11 |
| TGAAGCGATG | 1.47 |

| Sequence | switch fluorescence ratio |
| --- | --- |
| TGAAGCGGAG | 0.985 |
| TGAAGGCCCG | 1.04 |
| TGAAGGGCTC | 0.976 |
| TGAAGGGTCC | 0.988 |
| TGAAGGTATC | 1.01 |
| TGAAGGTGGG | 0.936 |
| TGAAGTAGAT | 0.961 |
| TGAAGTAGTT | 1.02 |
| TGAAGTCCAC | 0.989 |
| TGAAGTGCGA | 0.989 |
| TGAAGTTTG | 0.971 |
| TGAATAAACG | 1.04 |
| TGAATACCAG | 1.03 |
| TGACAACTTT | 0.979 |
| TGACACGGCC | 1.11 |
| TGACACTTC | 0.99 |
| TGACAGTTAC | 1.3 |
| TGACCCAGTG | 1.31 |
| TGACCCATCG | 0.998 |
| TGACGAAA | 1.13 |
| TGACGAGCCG | 1.03 |
| TGACGATGAC | 1.59 |
| TGACGCGCGG | 0.988 |
| TGACGGCCCG | 1.01 |
| TGACGGCTGA | 1.04 |
| TGACGTATTT | 1.05 |

| Sequence | switch fluorescence ratio |
| --- | --- |
| TGACGTCTGT | 0.95 |
| TGACGTTTGG | 0.968 |
| TGACTAAAAA | 1.03 |
| TGACTAGCAT | 1.1 |
| TGACTATACT | 1.35 |
| TGACTCACTA | 1.19 |
| TGACTCAG | 1.06 |
| TGACTCAGGT | 1.07 |
| TGACTGAGTG | 1.05 |
| TGACTGGAAA | 0.99 |
| TGACTGGATG | 1.03 |
| TGACTGGCAT | 1.05 |
| TGACTTATAG | 0.956 |
| TGACTTATAT | 1.06 |
| TGACTTATCG | 0.959 |
| TGACTTTAGC | 1.08 |
| TGAGAATCTG | 1.02 |
| TGAGAGCTG | 0.977 |
| TGAGAGGCGC | 1.03 |
| TGAGATTACG | 0.935 |
| TGAGCAAGTT | 1 |
| TGAGCCTACA | 1.04 |
| TGAGCGAAGA | 1.02 |
| TGAGCGCTCG | 1 |
| TGAGCGTATA | 1.04 |
| TGAGCGTTCG | 0.99 |

| Sequence | switch fluorescence ratio |
| --- | --- |
| TGAGCTATGT | 1.17 |
| TGAGCTTTGG | 1 |
| TGAGGAAACT | 1 |
| TGAGGACTTG | 0.964 |
| TGAGGCCATG | 0.985 |
| TGAGGCGGTA | 0.999 |
| TGAGGCTATT | 1.01 |
| TGAGGGCGTC | 1.04 |
| TGAGGGTGCA | 1.04 |
| TGAGGTCGGA | 0.989 |
| TGAGGTGTTA | 0.992 |
| TGAGTAAGCC | 1.02 |
| TGAGTAATAC | 1.5 |
| TGAGTCGGTC | 1 |
| TGAGTGACGC | 1.01 |
| TGAGTGTTCG | 1.01 |
| TGATAACAAC | 0.967 |
| TGATAAGTAG | 0.991 |
| TGATACATGG | 0.994 |
| TGATACCTCA | 1.04 |
| TGATACGATT | 1.04 |
| TGATACGGGT | 1.01 |
| TGATACGGTG | 1.07 |
| TGATACTAAC | 1.2 |
| TGATACTGAA | 1.02 |
| TGATAGTTGG | 1.04 |

| Sequence | switch fluorescence ratio |
| --- | --- |
| TGATATACCG | 1.05 |
| TGATATCTGC | 1.01 |
| TGATATGATT | 0.994 |
| TGATATGGGC | 1.03 |
| TGATCAACTC | 1.04 |
| TGATCAAGGG | 1.02 |
| TGATCAGCCG | 1.01 |
| TGATCGACCG | 1.02 |
| TGATCGGAAT | 1.12 |
| TGATCGTAGG | 0.952 |
| TGATCTACGT | 1.02 |
| TGATCTGTTA | 1.04 |
| TGATGAATAG | 1.03 |
| TGATGAGTAT | 1.02 |
| TGATGCGATG | 1.03 |
| TGATGCTACT | 1.06 |
| TGATGGAACT | 1.04 |
| TGATGGTAGC | 0.98 |
| TGATGTACTA | 0.995 |
| TGATGTCAGA | 0.977 |
| TGATGTTTCT | 1.01 |
| TGATTAAGGA | 0.981 |
| TGATTATCAT | 0.971 |
| TGATTCATTT | 0.979 |
| TGATTCGAAC | 1 |
| TGATTCGCAG | 1.14 |

| Sequence | switch fluorescence ratio |
| --- | --- |
| TGATTCGCCG | 1 |
| TGATTCTACC | 1.03 |
| TGATTGCGA | 1.09 |
| TGATTGCTAA | 1.02 |
| TGATTGCTGA | 0.994 |
| TGATTGTTT | 0.965 |
| TGATTTAAAT | 1.04 |
| TGATTTCGGC | 0.962 |
| TGATTTGGA | 1.03 |
| TGATTTTATC | 1.02 |
| TGATTTTCCG | 1.24 |
| TGCAAAACAC | 1.07 |
| TGCAAAACGC | 1 |
| TGCAAAATGG | 1.01 |
| TGCAACTAAA | 1.03 |
| TGCAACTAGG | 0.986 |
| TGCAAGCGGC | 1.05 |
| TGCAATCATT | 1.07 |
| TGCACAGATA | 0.958 |
| TGCACCGTGG | 0.959 |
| TGCACGGGCT | 1 |
| TGCACGTATG | 1.04 |
| TGCACGTTCC | 2 |
| TGCAGACCTC | 1.04 |
| TGCAGCAGG | 1.19 |
| TGCAGCGCG | 0.958 |

| Sequence | switch fluorescence ratio |
| --- | --- |
| TGCAGGAACA | 0.993 |
| TGCAGGAGGC | 1.08 |
| TGCAGGCGAG | 1.03 |
| TGCAGTCAGG | 1.05 |
| TGCAGTTCCG | 0.977 |
| TGCATATATG | 0.963 |
| TGCATCTGAA | 1 |
| TGCATCTTG | 1.03 |
| TGCATGTTC | 1.98 |
| TGCATTGAAT | 0.99 |
| TGCATTGCGC | 0.999 |
| TGCATTTTGA | 0.979 |
| TGCCAAATTA | 0.945 |
| TGCCACACGG | 1.03 |
| TGCCACGGAG | 0.991 |
| TGCCACGGGT | 0.99 |
| TGCCACTGTT | 0.974 |
| TGCCAGGCGC | 1.07 |
| TGCCCAGAAT | 1.01 |
